Experimental data: the supplement of paper PMC12645437, “Orthogonal IMiD-Degron Pairs Induce Selective Protein Degradation in Cells” (ACS Chemical Biology, 2025)
The list shows a part of the results.

biological target: no compound (DMSO); test: log2 fold change of degron read counts, EGFP-low vs EGFP+ sorted cells; higher = lower degron-EGFP level without compound (poor expression or instability); settings: compound: DMSO control; 18 h
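Note: jurkat cells carrying a lentiviral library of mutant zinc finger degrons fused to EGFP plus mCherry, mCherry+ cells FACS sorted, degron abundance counted by next-generation sequencing.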

Row | Sequence | log2 fold change of degron read counts
1 | FNCPICGHDFTQKGNLLRHIKL | -0.81
2 | FLCNQCGRPFTQKGNLLRHIKL | -0.0967
3 | FLCDVCGAYFTQKGNLLRHIKL | -0.886
4 | FCCEICGRNFTQKGNLLRHIKL | -0.608
5 | LHCEICGFVCTQKGNLLRHIKL | -0.0575
6 | FCCPICGRHFTQKGNLLRHIKL | 0.101
7 | FACEVCGANFTQKGNLLRHIKL | -1.68
8 | FRCPICGAYFTQKGNLLRHIKL | 1.08
9 | FSCPICGASFTQKGNLLRHIKL | 0.0799
10 | FFCEICGHNFTQKGNLLRHIKL | -1.21
11 | FQCPICGHGFTQKGNLLRHIKL | -0.263
12 | FDCNQCGASFTQKGNLLRHIKL | -0.791
13 | FWCNVCGAHFTQKGNLLRHIKL | 0.564
14 | FQCPICGHYFTQKGNLLRHIKL | 0.12
15 | LKCEICGFHCTQKGNLLRHIKL | 0.449
16 | FWCEICGRLFTQKGNLLRHIKL | 1.05

Row | Sequence | log2 fold change of degron read counts
17 | FCCNICGASFTQKGNLLRHIKL | -0.633
18 | FLCPICGRRFTQKGNLLRHIKL | -0.741
19 | FLCDVCGAHFTQKGNLLRHIKL | -0.971
20 | FGCDVCGAWFTQKGNLLRHIKL | 0.0278
21 | FMCDQCGANFTQKGNLLRHIKL | -2.63
22 | FNCSVCGHNFTQKGNLLRHIKL | -0.405
23 | FLCEQCGAAFTQKGNLLRHIKL | -1.24
24 | FVCNQCGAVFTQKGNLLRHIKL | -0.348
25 | FMCPICGRCFTQKGNLLRHIKL | 0.292
26 | FLCPICGRKFTQKGNLLRHIKL | -0.589
27 | FTCNQCGHCFTQKGNLLRHIKL | -0.53
28 | FSCDVCGAQFTQKGNLLRHIKL | -2.2
29 | LDCPICGFVCTQKGNLLRHIKL | 0.272
30 | FLCNQCGHYFTQKGNLLRHIKL | 0.925
31 | FFCEICGAHFTQKGNLLRHIKL | -0.388
32 | FECDVCGARFTQKGNLLRHIKL | -1.99
